This note sets out measurements from patent publication US7592316B2, “Peptides as NS3-serine protease inhibitors of hepatitis C virus” (Schering Corporation, priority 2000, dated 2009).

Broadly, the Ki is a dissociation constant, usually derived from enzyme kinetics or from competition with a known ligand.

*1 amine or outer side, *2 acyl side, *3 side chain or, on linkers, in order; H or OH if unused. Where a SMILES comes first, the peptide text is derived from it. [ ]: non-standard residue; d: D form. The star is where a group is joined. ξ: configuration not given here. Benzoyl(2,3,4,5,6-F5) = O=C(c1c(F)c(F)c(F)c(F)c1F)*; Benzenesulfonyl(4-OMe) = COc1ccc(S(=O)(=O)*)cc1; ξPhg(3,5-(OMe)2) = COc1cc(OC)cc(C(N)C(=O)O)c1; Benzenesulfonyl(4-F) = O=S(=O)(c1ccc(F)cc1)*; ξLeu(ψCOCO) = CC(C)CC(N[*:1])C(=O)C(=O)[*:2]; ξPhg(2,3-(OMe)2) = COc1cccc(C(N)C(=O)O)c1OC; Acetyl(2-naphthyl) = O=C(Cc1ccc2ccccc2c1)*; Benzoyl(2,6-F2) = O=C(c1c(F)cccc1F)*; ξPhg(3-Cl) = NC(C(=O)O)c1cccc(Cl)c1; X4 = CCCCC(N[*:1])C(=O)C(=O)[*:2]; Hyp = O=C(O)[C@@H]1C[C@@H](O)CN1; X2 = CCCC(N[*:1])C(=O)C(=O)[*:2]; X105 = O=C(O)[C@H]1CCCCC1C(=O)*; Aad = N[C@@H](CCCC(=O)O)C(=O)O; dPhg = N[C@@H](C(=O)O)c1ccccc1; CH2CO2tBu = CC(C)(C)OC(=O)C*; Chg = N[C@H](C(=O)O)C1CCCCC1; Phg = N[C@H](C(=O)O)c1ccccc1; X101 = Cc1ccc(C(=O)*)c(C)c1; X103 = O=C(O)C1CCCCC1C(=O)*; ξChg = NC(C(=O)O)C1CCCCC1; ξPhg = NC(C(=O)O)c1ccccc1; Carboxymethyl = O=C(O)C*; X98 = CCC(C(=O)O)C(=O)*; ξNle = CCCCC(N)C(=O)O; Bn = c1ccc(C*)cc1; OtBu = CC(C)(C)O*; tBu = CC(C)(C)*; MEM = COCCOC* Some results are limits rather than exact numbers.

In the experiment the target is HCV NS3/NS4A protease (strain 1a) (Hepatitis C virus genotype 1a, UniProt P27958). The experiment can be described thus: biochemical. The following applies: Compounds prepared by Solid Phase Synthesis, Table 3; read-out: Ki* CLASS.
`CCCC(NC(=O)[C@@H]1C[C@@H](OCc2ccccc2)CN1C(=O)C(NC(=O)C(CC)C(=O)O)C1CCCCC1)C(=O)C(=O)NCC(=O)NC(C(=O)O)c1ccccc1` (some centres unmarked) (X98-[ξChg][Hyp](Bn)[X2]G[ξPhg]-OH): the Ki fell in the range of 1 to 100 nM.

In the case of `CCCC(NC(=O)[C@@H]1C[C@@H](OCc2ccccc2)CN1C(=O)C(NC(=O)c1ccc(C)cc1C)C1CCCCC1)C(=O)C(=O)NCC(=O)N[C@@H](C(N)=O)c1ccccc1` (some centres unmarked) (X101-[ξChg][Hyp](Bn)[X2]G[dPhg]-NH2), the Ki was in the range of 101 to 1000 nM.

Regarding `CCCC(NC(=O)[C@@H]1C[C@@H](OCc2ccccc2)CN1C(=O)C(NC(=O)C1CCCCC1C(=O)O)C1CCCCC1)C(=O)C(=O)NCC(=O)NC(C(=O)O)c1ccccc1` (some centres unmarked) (X103-[ξChg][Hyp](Bn)[X2]G[ξPhg]-OH), the inhibition constant (Ki) is 1 to 100 nM. The figure for `CCCCC(NC(=O)CNC(=O)C(=O)C(CCC)NC(=O)[C@@H]1C[C@@H](OCOCCOC)CN1C(=O)C(NC(=O)C1CCCC[C@@H]1C(=O)O)C1CCCCC1)C(N)=O` (some centres unmarked) (X105-[ξChg][Hyp](MEM)[X2]G[ξNle]-NH2) is 101 to 1000 nM; for `CCCCC(NC(=O)CNC(=O)C(=O)C(CCC)NC(=O)[C@@H]1C[C@@H](OCC(=O)OC(C)(C)C)CN1C(=O)C(NC(=O)Cc1ccc2ccccc2c1)C1CCCCC1)C(N)=O` (some centres unmarked) ({Acetyl(2-naphthyl)}-[ξChg][Hyp](CH2CO2tBu)[X2]G[ξNle]-NH2) it is greater than 1000 nM; for `CCCCC(NC(=O)CNC(=O)C(=O)C(CCC)NC(=O)[C@@H]1C[C@@H](OCC(=O)O)CN1C(=O)C(NC(=O)Cc1ccc2ccccc2c1)C1CCCCC1)C(N)=O` (some centres unmarked) ({Acetyl(2-naphthyl)}-[ξChg][Hyp](Carboxymethyl)[X2]G[ξNle]-NH2) it is greater than 1000 nM. Take `CCCCC(NC(=O)CNC(=O)C(=O)C(CCC)NC(=O)[C@@H]1C[C@@H](OC(C)(C)C)CN1C(=O)C(NC(=O)Cc1ccc2ccccc2c1)C1CCCCC1)C(N)=O` (some centres unmarked) ({Acetyl(2-naphthyl)}-[ξChg][Hyp](tBu)[X2]G[ξNle]-NH2): the inhibitory constant (Ki) is greater than 1000 nM. For the molecule `CCCCC(NC(=O)[C@@H]1C[C@@H](OC(C)(C)C)CN1C(=O)[C@@H](NS(=O)(=O)c1ccc(F)cc1)C(C)C)C(=O)C(=O)NCC(=O)N[C@H](C(N)=O)c1ccccc1` (some centres unmarked) ({Benzenesulfonyl(4-F)}-V[Hyp](tBu)[X4]G[Phg]-NH2), the Ki was greater than 1000 nM. For the molecule `CCCCC(NC(=O)[C@@H]1C[C@@H](OC(C)(C)C)CN1C(=O)[C@@H](NS(=O)(=O)c1ccc(OC)cc1)C(C)C)C(=O)C(=O)NCC(=O)N[C@H](C(N)=O)c1ccccc1` (some centres unmarked) ({Benzenesulfonyl(4-OMe)}-V[Hyp](tBu)[X4]G[Phg]-NH2), the Ki is greater than 1000 nM.

As to `CCCC(NC(=O)[C@@H]1C[C@@H](OC(C)(C)C)CN1C(=O)[C@@H](NC(=O)c1c(F)c(F)c(F)c(F)c1F)C1CCCCC1)C(=O)C(=O)NCC(=O)NC(C(N)=O)c1cccc(Cl)c1` (some centres unmarked) ({Benzoyl(2,3,4,5,6-F5)}-[Chg][Hyp](tBu)[X2]G[ξPhg(3-Cl)]-NH2), the Ki is greater than 1000 nM.

For `CC(C)CC(NC(=O)[C@@H]1C[C@@H](OC(C)(C)C)CN1C(=O)[C@@H](NC(=O)c1c(F)c(F)c(F)c(F)c1F)C1CCCCC1)C(=O)C(=O)NCC(=O)N[C@H](C(N)=O)c1ccccc1` (some centres unmarked) ({Benzoyl(2,3,4,5,6-F5)}-[Chg][Hyp](tBu)[ξLeu(ψCOCO)]G[Phg]-NH2), the Ki was greater than 1000 nM. Under `CCCC(NC(=O)[C@@H]1C[C@@H](OCc2ccccc2)CN1C(=O)[C@H](CCCC(=O)OC(C)(C)C)NC(=O)c1c(F)cccc1F)C(=O)C(=O)NCC(=O)N[C@H](C(N)=O)c1ccccc1` (some centres unmarked) ({Benzoyl(2,6-F2)}-[Aad](OtBu)[Hyp](Bn)[X2]G[Phg]-NH2) stands greater than 1000 nM; under `CCCC(NC(=O)[C@@H]1C[C@@H](OCc2ccccc2)CN1C(=O)[C@H](CCCC(=O)O)NC(=O)c1c(F)cccc1F)C(=O)C(=O)NCC(=O)N[C@H](C(N)=O)c1ccccc1` (some centres unmarked) ({Benzoyl(2,6-F2)}-[Aad][Hyp](Bn)[X2]G[Phg]-NH2), 101 to 1000 nM. With `CCCC(NC(=O)[C@@H]1C[C@@H](OC(C)(C)C)CN1C(=O)[C@@H](NC(=O)c1c(F)cccc1F)C1CCCCC1)C(=O)C(=O)NCC(=O)N[C@H](CC(=O)OC(C)(C)C)C(N)=O` (some centres unmarked) ({Benzoyl(2,6-F2)}-[Chg][Hyp](tBu)[X2]G[dD](OtBu)-NH2), the inhibition constant Ki was greater than 1000 nM. Consider `CCCC(NC(=O)[C@@H]1C[C@@H](OC(C)(C)C)CN1C(=O)[C@@H](NC(=O)c1c(F)cccc1F)C1CCCCC1)C(=O)C(=O)NCC(=O)NC(C(N)=O)c1cccc(OC)c1OC` (some centres unmarked) ({Benzoyl(2,6-F2)}-[Chg][Hyp](tBu)[X2]G[ξPhg(2,3-(OMe)2)]-NH2), for which the Ki was in the range of 101 to 1000 nM.

In the case of `CCCC(NC(=O)[C@@H]1C[C@@H](OC(C)(C)C)CN1C(=O)[C@@H](NC(=O)c1c(F)cccc1F)C1CCCCC1)C(=O)C(=O)NCC(=O)NC(C(N)=O)c1cc(OC)cc(OC)c1` (some centres unmarked) ({Benzoyl(2,6-F2)}-[Chg][Hyp](tBu)[X2]G[ξPhg(3,5-(OMe)2)]-NH2), the Ki was in the range of 101 to 1000 nM. Take `CCCC(NC(=O)[C@@H]1C[C@@H](OC(C)(C)C)CN1C(=O)[C@@H](NC(=O)c1c(F)cccc1F)C1CCCCC1)C(=O)C(=O)NCC(=O)NC(C(N)=O)c1cccc(Cl)c1` (some centres unmarked) ({Benzoyl(2,6-F2)}-[Chg][Hyp](tBu)[X2]G[ξPhg(3-Cl)]-NH2): the Ki was in the range of 101 to 1000 nM.
